Results reported in paper PMC4336329 (PLoS ONE, 2015).
About 2,200 (0.71%) of roughly 310,000 compounds showed an effect of 50% or more. The effect is printed as a negative number. The list shows a part of the results.

Biological target: human ether-à-go-go-related gene (hERG) potassium channel (human, UniProt Q12809)
Assay: primary screen, population patch clamp on CHO cells stably expressing hERG

human ether-à-go-go-related gene (hERG) potassium channel, sequence (Q12809 whole entry, looked up): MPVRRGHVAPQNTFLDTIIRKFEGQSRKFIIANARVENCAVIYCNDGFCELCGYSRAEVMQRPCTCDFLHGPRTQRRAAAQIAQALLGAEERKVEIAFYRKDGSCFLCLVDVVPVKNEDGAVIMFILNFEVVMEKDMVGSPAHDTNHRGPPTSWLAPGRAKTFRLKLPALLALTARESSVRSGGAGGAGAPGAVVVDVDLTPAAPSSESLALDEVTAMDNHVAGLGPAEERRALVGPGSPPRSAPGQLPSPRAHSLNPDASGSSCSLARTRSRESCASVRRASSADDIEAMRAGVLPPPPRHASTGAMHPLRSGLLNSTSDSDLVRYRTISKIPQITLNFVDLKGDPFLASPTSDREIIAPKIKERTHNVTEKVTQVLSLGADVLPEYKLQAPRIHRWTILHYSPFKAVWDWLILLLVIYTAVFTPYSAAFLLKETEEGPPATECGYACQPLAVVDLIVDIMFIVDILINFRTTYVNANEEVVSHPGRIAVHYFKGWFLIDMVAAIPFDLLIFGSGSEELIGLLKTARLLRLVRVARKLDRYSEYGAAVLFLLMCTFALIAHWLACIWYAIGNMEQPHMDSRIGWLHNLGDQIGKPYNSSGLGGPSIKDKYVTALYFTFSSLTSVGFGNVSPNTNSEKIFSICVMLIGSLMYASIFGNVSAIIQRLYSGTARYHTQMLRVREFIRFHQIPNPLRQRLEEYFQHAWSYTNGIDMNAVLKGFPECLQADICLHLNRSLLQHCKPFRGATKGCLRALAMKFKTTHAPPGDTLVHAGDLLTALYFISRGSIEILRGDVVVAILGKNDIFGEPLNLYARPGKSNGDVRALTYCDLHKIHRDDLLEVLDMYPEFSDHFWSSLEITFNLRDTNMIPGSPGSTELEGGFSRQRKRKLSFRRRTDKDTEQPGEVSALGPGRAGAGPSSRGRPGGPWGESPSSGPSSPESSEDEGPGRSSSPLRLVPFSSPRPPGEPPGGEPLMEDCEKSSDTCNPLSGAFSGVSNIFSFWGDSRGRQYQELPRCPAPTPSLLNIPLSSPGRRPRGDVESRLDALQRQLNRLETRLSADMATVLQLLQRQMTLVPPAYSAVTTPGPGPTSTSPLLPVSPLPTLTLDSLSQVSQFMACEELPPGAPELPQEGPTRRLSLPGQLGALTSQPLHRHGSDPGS

| Compound | hERG current change (%, negative = inhibition) at 1uM [%] |
| --- | --- |
| COc1ccccc1C(=O)N/N=C(\C)CC(=O)Nc1ccc2c(c1)OCCO2 | 14 |
| Cc1ccccc1N1CCN(S(=O)(=O)c2cccs2)CC1 | 6.13 |
| CCOc1ccc(C(=O)NCC(=O)OCC(=O)Nc2ccccc2OC)cc1 | 2.32 |
| O=C(COc1ccc(Cl)cc1Cl)Nc1ccc(S(=O)(=O)NC2=NCCCCC2)cc1 | 1.98 |
| O=C(COC(=O)c1ccccc1SCC(=O)NC1CCS(=O)(=O)C1)NC1CCS(=O)(=O)C1 (centres unmarked) | 11.8 |
| Cc1ccc(C(=O)COC(=O)c2ccc3c(c2)C(=O)N(c2cccc4ncccc24)C3=O)cc1 | 19.2 |
| O=C(c1ccc(S(=O)(=O)N2CCCC2)cc1)N1CCN(c2ccccc2)CC1 | 6.77 |
| COc1ccc([N+](=O)[O-])cc1NC(=O)CC1SC(=Nc2cccc(C)c2C)N(/N=C(\C)c2ccc(C)cc2)C1=O (centres unmarked) | -0.828 |
| CCN1CCc2c(C#N)c(N3CCCCC3)nc(NCc3ccccc3)c2C1 | 14.3 |
| O=C(NCC(=O)N1CCC2(CC1)NCCc1[nH]cnc12)c1ccc(F)cc1 | 13.3 |
| COc1ccc(C2=NN(C(C#N)c3ccc(OC)cc3)C(c3ccccc3)C2)cc1 (centres unmarked) | 0.598 |
| COc1ccc(-c2cc(C(=O)NCC(c3ccco3)N(C)C)c3ccccc3n2)cc1OC (centres unmarked) | 3.53 |
| COC(=O)c1ccsc1NC(=O)CN1CCN(c2ccc(F)cc2)CC1 | 15 |
| COc1ccccc1N1CCN(C(=O)c2ccccc2N(C)S(=O)(=O)c2ccc(C)cc2)CC1 | 10.3 |
| CS(=O)(=O)Nc1ccc(C(=O)NCC2CCCO2)cc1 (centres unmarked) | 8.72 |
| CCOc1ccccc1NS(=O)(=O)c1ccc2oc(=O)ccc2c1 | 6.61 |
| O=C(Nc1ccccc1)OCC1CCCO1 (centres unmarked) | 6.06 |
| COc1ccc(Br)cc1CNC(=O)CCC(=O)n1nc(C)c2ccccc21 | 13.8 |
| Nc1nc2c(-c3ccc(Br)cc3)nnn2c2ccccc12 | 14 |
| O=C1NCCN(Cc2cccc(Oc3ccccc3)c2)C1CC(=O)N1CCCCO1 (centres unmarked) | -3.92 |
| CC(C)C(NC(=O)c1cccc(S(=O)(=O)N2CCOCC2)c1)C(=O)NCCc1ccccn1 (centres unmarked) | 14.3 |
| COCCNc1nc2c(-c3cccc(C(F)(F)F)c3)nnn2c2ccccc12 | 12.6 |
| CCn1c(=O)cc(OCC(=O)NCCC(C)C)c2ccccc21 | 2.9 |

| Compound | hERG current change (%, negative = inhibition) at 1uM [%] |
| --- | --- |
| Cc1ccc(NC(=O)C2CCN(S(=O)(=O)c3cccc4nonc34)CC2)cc1 | 12.5 |
| COc1ccc2ccn(S(=O)(=O)c3ccccc3)c2c1 | 14.1 |
| CCCn1c(N)c(C(=O)CN(C)CC(=O)Nc2ccccc2C(F)(F)F)c(=O)[nH]c1=O | 11.8 |
| COc1ccc(NCc2ccccc2[N+](=O)[O-])cc1OC | 6.96 |
| C=C(C)C1CC=C(C)/C(=N/NC(=O)COc2cccc3ccccc23)C1 (centres unmarked) | 3.66 |
| CCN(CC)/C(=N\S(=O)(=O)c1ccc(F)cc1)c1ccccc1 | 7.29 |
| CCN1CCc2c(OCC(=O)Nc3ccccc3)cccc2C1=O | 8.27 |
| CCC1Oc2ccc(C)cc2N(CC(=O)NCCCN2CCCC2)C1=O (centres unmarked) | 10.5 |
| CCOC(=O)c1c(C)oc2cc(Br)c(OCC(N)=O)cc12 | 7.6 |
| O=C1c2ccccc2C(=O)c2cc(NC(=O)C3CC3)ccc21 | 6.82 |
| CCn1c(C)c(C(=O)NCCc2ccccc2)c2cc(OC)ccc21 | 0.777 |
| COc1cccc(NC(=O)CSc2ccc3nnc(-c4ccccn4)n3n2)c1 | 6.48 |
| Cc1ccc(OCCSCc2nc3ccccc3[nH]2)cc1 | 1.28 |
| CC(=O)c1cccc(NC(=O)c2cc(C)nn2-c2ccccc2)c1 | 3.5 |
| O=C(O)c1ccccc1OCc1ccccc1Br | 4.41 |
| COc1ccc(N2CCN(C(C)C(=O)N3CCCC3)CC2)cc1.O=C(O)C(=O)O (centres unmarked) | 13.2 |
| O=C(O)C(=O)O.O=C(c1ccccc1)N1CCN(Cc2ccccc2)CC1 | 2.81 |
| COc1ccc(-c2cn(Cc3ccc4c(c3)C(=O)c3ccccc3C4=O)nn2)cc1 | 1.17 |
| COc1ccc(Cl)cc1Nc1nc(-c2cccnc2)cs1 | 12.8 |
| COc1ccc(C(C)(C)C)cc1NC(=O)c1c(C)noc1C | -5.53 |
| CC(=O)Nc1ccc(OC(=O)C(CCS(C)(=O)=O)N2C(=O)c3ccccc3C2=O)cc1 (centres unmarked) | 12.3 |
| CCOC(=O)CC1=C(C(=O)OCC)C(c2cccs2)C(C#N)=C(N)O1 (centres unmarked) | 8.69 |
| COc1ccc(Cl)cc1NC(=S)NCCc1ccc(S(N)(=O)=O)cc1 | 9.25 |

| Compound | hERG current change (%, negative = inhibition) at 1uM [%] |
| --- | --- |
| CCN(CC)C(=O)CSc1nnc(-c2ccccc2)n1-c1ccccc1 | 13.3 |
| CN1CCN(C(=O)c2ccc(CSc3ccc(Cl)cc3)cc2)CC1 | -17.1 |
| CCc1ccc(C(=O)NNC(=O)OC)cc1 | 8.42 |
| COc1ccc(/C(N)=N/OC(=O)Cc2ccccc2[N+](=O)[O-])cc1 | 10.3 |
| Cc1cc(C)c2c(NC(=O)C3CC3)nn(C)c2n1 | 7.94 |
| CC(C)(C)NC(=O)c1ccc(COCC(F)(F)F)o1 | -0.831 |
| Cc1ccc2oc(=S)n(C)c2c1 | 7.53 |
| Nc1cc(=O)[nH]c2nnc(SCC(=O)Nc3cccc4ccccc34)n12 | 9.74 |
| COC(=O)C1=C(C(=O)OC)C2(OC1c1ccccc1C)C(=O)c1ccccc1C2=O (centres unmarked) | 16.3 |
| CC(C)[C@H](NC(=O)c1ccccc1)C(=O)OCC(=O)/C=C1/N(C)c2ccccc2C1(C)C | 12 |
| COc1ccc(C(=O)NCc2nnc(SCC(=O)Nc3ccccc3OC)o2)cc1 | 11.3 |
| O=C(CSc1nnc(Cc2csc(Nc3cccc(Cl)c3)n2)o1)N1CCc2ccccc21 | 6.29 |
| O=C(CNC(=O)c1cccs1)Nc1ccc2c(c1)OCCO2 | 11.6 |
| CCOc1ccc(Cl)cc1CNCCc1ccc(F)cc1.Cl | -20.6 |
| CC1CCN(CC(=O)NCc2ccco2)CC1 | 12.5 |
| CCc1ccc(O)c(-c2cc(C(=O)Nc3cccnc3)[nH]n2)c1 | 4.42 |
| O=C(OCc1nc2ccccc2s1)c1cccc(S(=O)(=O)N2CCOCC2)c1 | 0.86 |
| CCOC(=O)c1n[nH]n(-c2cc(Cl)cc(Cl)c2)c1=O | 12.5 |
| CCCCCCCC(=O)N/N=C(\C)c1ccc(N)cc1 | 6.45 |
| COc1cc(NC(=S)Nc2ccc(N(C)C(C)=O)cc2)cc(OC)c1 | 6.21 |
| CCOC(=O)c1c(NC(=O)C2CCCCC2C(=O)O)sc2c1CCCCC2 (centres unmarked) | 14.3 |
| Fc1cc(Cl)c(OCc2noc(-c3ccsc3)n2)c(Cl)c1 | 9 |
| COc1ccccc1C(C(=O)NCc1ccc(F)cc1)N(C(=O)c1csnn1)C1CC1 (centres unmarked) | 5.46 |

| Compound | hERG current change (%, negative = inhibition) at 1uM [%] |
| --- | --- |
| O=C(CNC(=O)c1ccccc1F)N/N=C/c1cccnc1 | 15 |
| COCCn1c(SCC(=O)NC2CCCCC2)nnc1-c1ccco1 | 9.89 |
| O=C(Cn1cc(C(F)(F)F)ccc1=O)N/N=C/c1ccc(Cl)cc1Cl | 4.2 |
| Cc1ccc(NC(=O)CCN2CCN(C/C=C/c3ccccc3)CC2)cc1C.Cl | -53.2 |
| CCN(CC)CCN1C(=O)C(=O)/C(=C(/O)c2ccncc2)C1c1ccccc1 (centres unmarked) | 14.8 |
| COc1cc(NCC(=O)Nc2cccc(S(=O)(=O)N3CCCCC3)c2)cc(OC)c1OC | -2.64 |
| CC(=O)c1sc(NC(=O)C(C)(C)C)nc1C | 13.6 |
| COc1ccc(C(=O)N2CCCCC2C(=O)Nc2ccc(-n3nc(C)cc3C)cc2)o1 (centres unmarked) | 5.34 |
| Cn1cnc(S(=O)(=O)Nc2ccccc2C(=O)NCC2CC2)c1 | 9.61 |
| CC(Oc1ccccc1)C(=O)Nc1cccc(-c2nc3ccccc3[nH]2)c1 (centres unmarked) | -3.3 |
| COc1cccc(OCc2cc(C(=O)N(C)Cc3nccn3C)no2)c1 | 12.8 |
| CCOc1ccc(NC(=O)CN(C)C(=O)c2ccc(C)o2)cc1OCC | 9.15 |
| CCc1ccc(C(=O)CSc2nc(C)cc(=O)[nH]2)cc1 | 15.7 |
| O=C(N/C(=C\c1cccnc1)C(=O)N1CCC(O)CC1)c1ccccc1 | 15 |
| CCCn1c(N)c(N(CCOC)C(=O)c2cccc(F)c2)c(=O)[nH]c1=O | 16.7 |
| CC(=O)CSc1nnc(Cc2ccc3c(c2)OCO3)o1 | 3.55 |
| CC1CCCCN1S(=O)(=O)c1ccc(S(=O)(=O)N2CCN(C)CC2)cc1 (centres unmarked) | 18.4 |
| COc1ccc(C2(NC(C)=O)CCN(Cc3cccnc3)CC2)cc1 | 15.5 |
| COCCCn1c(SCC(=O)Nc2cccc(C)n2)nnc1-c1ccco1 | -20.6 |
| O=C(COC(=O)CCC1CCCC1)Nc1ccccc1Sc1ccccc1 | 17.9 |
